# From PubChem BioAssay (Tox21)
# Several values for one entry are separate records, joined by “and”; a condition that tells them apart may be missing. Identical values can stand only once. The shares of active, inactive and inconclusive entries below differ from those in the screen. Potencies of inconclusive entries are doubtful fits and often do not repeat. Activity calls are given as the source filed them. Calls come from the whole dose curve; as a rule, active = well fitted cell-killing curve with a large enough effect in the repeat runs; inconclusive = weak or mixed curves, or effect the other way; inactive = flat fitted curve, though single readings scatter.
# Assay: cAMP Responsive Elements (CRE) small molecule antagonists, cell-based qHTS assay: qHTS cell viability counter screen (AID 2060913); note: nearly all actives have a fitted effect of over 40% in size
# Settings: CRE-bla HEK293T viability, CellTiter-Glo luminescence, 5 h; series mostly up to 92.4 µM
# Outline: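 CRE-bla HEK293T cells were seeded in assay medium with 10% dialyzed FBS, incubated 18 hrs at 37 C, then exposed to compounds plus 0.25 uM final NKH477 for 3 hrs. Viability was read by CellTiter-Glo luminescence after 30 min, in the same wells.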
# Potency is the fitted concentration of half-maximal effect; tags give direction and shape of the fitted curve.
row,Structure (SMILES),Potency
1,CC(C)(C)C(O)/C(=C\c1ccc(Cl)cc1Cl)n1cncn1 (stereo not given),"inconclusive: 83 µM [cytotoxic, single point]"
2,CC1CN1 (stereo not given),inactive
3,C=C(C)[C@H]1CN[C@H](C(=O)O)[C@H]1CC(=O)O,inconclusive: 0.0011 µM
4,O=c1ccc(=O)[nH][nH]1,"inconclusive: 1.62 µM [cytotoxic, single point]"
5,C=C(C)[C@@H]1CC=C(C=O)CC1,inactive
6,COc1cccc2c1cc([N+](=O)[O-])c1c(C(=O)O)cc3c(c12)OCO3,"inconclusive: 61.1 µM [cytotoxic, single point]"
7,Nc1ccccc1C(=O)O,"inconclusive: 27.4 µM [cytotoxic, single point]"
8,[O]=[Cr](=[O])([OH])[O][Cr](=[O])(=[O])[OH],"inconclusive: 3.89 µM [cytotoxic, full curve, poor fit] and inconclusive: 13.7 µM [cytotoxic, partial curve]"
9,Nn1cnnc1,inactive
10,COC12CC[C@@]3(C[C@@H]1C(C)(O)C(C)(C)C)[C@H]1Cc4ccc(O)c5c4[C@@]3(CCN1CC1CC1)[C@H]2O5 (stereo not given in full),active: 60.7 µM
11,COP(=O)(OC)O/C(=C/Cl)c1cc(Cl)c(Cl)cc1Cl,"inconclusive: 8.13 µM [cytotoxic, full curve, poor fit]"
12,Oc1c(Br)c(Br)c(Br)c(Br)c1Br,"inconclusive: 48.9 µM [cytotoxic, partial curve]"
13,c1ccc(P(c2ccccc2)c2ccccc2)cc1,inactive
14,O=[N+]([O-])/C=C/c1ccccc1,"inconclusive: 27.3 µM [rising, partial curve, poor fit]"
15,C[C@]12C/C(=C/O)C(=O)C[C@@H]1CC[C@@H]1[C@@H]2CC[C@@]2(C)[C@H]1CC[C@]2(C)O,"inconclusive: 55 µM [cytotoxic, partial curve, poor fit]"
16,O=S1(=O)OCC2C(CO1)C1(Cl)C(Cl)=C(Cl)C2(Cl)C1(Cl)Cl (stereo not given),"inconclusive: 77 µM [cytotoxic, partial curve, poor fit]"
17,CC[n+]1ccccc1,"inconclusive: 60.6 µM [cytotoxic, partial curve, poor fit]"
18,ClCc1cccnc1,"inconclusive: 0.6 µM [cytotoxic, single point]"
19,O=C1C(Cl)=C(Cl)C(=O)c2ccccc21,"inconclusive: 20.2 µM [cytotoxic, partial curve, poor fit]"
20,CCOP(=O)(OCC)Oc1ccc([N+](=O)[O-])cc1,"inconclusive: 40.3 µM [cytotoxic, partial curve]"
21,CCC(C)(NC(=O)c1cc(Cl)c(C)c(Cl)c1)C(=O)CCl (stereo not given),"inconclusive: 69 µM [cytotoxic, single point]"
22,C[C@H]1[C@@H]2Cc3ccc(O)cc3[C@@]1(C)CCN2C,inactive
23,Nc1nc(N)c(N)c(N)n1,"inconclusive: 0.0061 µM [rising, full curve, poor fit]"
24,Nc1c(Cl)cc([N+](=O)[O-])cc1Cl,"inconclusive: 68.6 µM [cytotoxic, partial curve, poor fit]"
25,Oc1cccc2cccnc12,"inconclusive: 21.5 µM [cytotoxic, partial curve, poor fit] and inconclusive: 1.14 µM [cytotoxic, full curve, poor fit]"
